Assay results published in PubChem BioAssay AID1508623 (National Center for Advancing Translational Sciences (NCATS), 2021).
The campaign covered roughly 48,000 compounds. About 450 (0.94%) were called active. Inconclusive results (about 19%) are left out. The call rests on the fitted dose curve; in most records, active means well fitted inhibition curve with a large enough effect; inconclusive means small, poorly fitted or top-dose-only effect; inactive means no such curve, though single readings can be large or run the other way. This is one part of the list.

Test: Primary qHTS for Identification of Small Molecule Inhibitors of Huntingtin Promoter Activity; further: nearly all actives have a fitted effect of over 50% in size
Settings: HEK293 HTT promoter firefly luciferase reporter (activity 0% = vehicle and -100% = no light), 24 h; series mostly up to 57.5 µM; activity change, negative = inhibition: at the top concentration
Procedure, shortened: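 Luminescence was read after Dual-Glo reagent and a 10 min room-temperature incubation. Values were normalized to vehicle (0% activity) and zero RLU (-100% activity). Reporter HEK293 cells had been exposed to compounds (up to 57.5 uM final) for 24 h.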

Activity change, negative = inhibition, inactive:
CCN1CCN(c2ncc3c(n2)CCN(Cc2sccc2C)C3)CC1 -13.6%, O=C(CSc1nnc2scc(-c3ccc(Cl)cc3)n12)Nc1cccc(C(F)(F)F)c1 -24.3%, COc1cc(NC(=O)CC(C)S(=O)(=O)c2ccc3c(c2)CCN3C(C)=O)cc(OC)c1OC (configuration not stated) -6.44%, Cc1ccc(NC(=O)CN(C)S(=O)(=O)c2cccc3cccnc23)cc1F -21.7%, COc1ccc(Cl)cc1Nc1nc2ccc(C(=O)c3ccccc3)cc2n2cnnc12 44.1%, CN(CC(=O)Nc1ccc(Cl)cc1F)S(=O)(=O)c1ccc2c(c1)n(C)c(=O)c(=O)n2C -20%, CCc1ccc(C(c2ccccc2)c2c[nH]c3ccc(C)cc23)s1 (configuration not stated) 11.6%, Cc1sc2ncn(CC(=O)N3CCN(c4ccccc4)CC3)c(=O)c2c1S(=O)(=O)N1CCN(c2ncccn2)CC1 -13%, CC(C(=O)O)c1ccc(CC2CCCC2=O)cc1 (configuration not stated) -2.54%, Nc1ncnc2c1ncn2Cc1c(F)cccc1Cl -5.34%, Cc1ccc(NC(=O)c2cccc(N3CCCS3(=O)=O)c2)cc1C 51.9%, Cc1ccc(NC(=O)[C@H]2O[C@@H]3OC(C)(C)O[C@@H]3[C@H]3OC(C)(C)O[C@H]32)cc1F -0.072%, CC(C(=O)Nc1ccccc1C(F)(F)F)n1nnc2sc3c(c2c1=O)CCCC3 (configuration not stated) -14.7%, CCS(=O)(=O)NCC(c1ccco1)N1CCN(c2ccccc2)CC1 (configuration not stated) -2.19%, CSc1nc(Nc2ccc(C)cc2)c(C#N)c(-c2ccccc2)n1 -12.9%, Cc1ccc(CSc2ncc(Cl)c(C(=O)Nc3nc4ccc(C)cc4s3)n2)cc1 0.872%, Oc1c(C(c2ccccc2)N2CCN(c3cccc(Cl)c3)CC2)sc2nc(-c3ccco3)nn12 (configuration not stated) -24.5%, O=c1c(=O)n(-c2ccccc2)ccn1Cc1cccc(C(F)(F)F)c1 -26.3%, Cc1ccc(NC(=O)c2cc3nc(-c4ccc5c(c4)OCO5)cc(C(F)(F)F)n3n2)cc1Cl 1.23%, COc1ccccc1CNS(=O)(=O)c1cc(Br)cc2c1N(C(C)=O)C(C)C2 (configuration not stated) -23.7%, O=C1COc2ccc(-c3cc(-c4ccc(F)cc4)c4c(n3)-c3cc(Cl)ccc3OC4)cc2N1 -8.12%, Cc1c(C(=O)Nc2ccccc2Cl)sc2ncnc(N(C)C3CCCCC3)c12 -18.6%, COc1cc(Cl)c(NC(=O)c2cc(CN3CCCC3)on2)c(OC)c1 -8%, Cc1ccc(N2CC(c3nnc(Cc4ccc(F)cc4)o3)CC2=O)cc1 (configuration not stated) -11.8%, COc1ccc(Cn2ccnc2SCC(=O)NC2CCCC2)cc1 -24%, CC(CCc1ccccc1)NC(=O)Cn1c(=O)nc(-c2ccccc2F)c2cc(Cl)ccc21 (configuration not stated) -21.6%, Cc1oc(-c2ccccc2F)nc1CSCC(=O)NCc1ccccc1 -23%, COc1ccc2c(c1)CC(C(=O)Nc1cccc(C)c1C)CO2 (configuration not stated) -19.4%, COC(=O)c1ccc(NS(=O)(=O)c2c(C)nc3sccn3c2=O)cc1 -29.1%, CCOC(=O)Cn1c(=O)n(C2CCCCC2)c2nc(-c3ccc(OCC)cc3)nc(C(N)=O)c21 -9.47%, COc1ccc(C2CC(=O)c3cnc4c(-c5ccccc5)c(C)nn4c3C2)cc1OC (configuration not stated) -28.2%, Cc1c(-c2cccc(NC(=O)c3ccc(F)c(F)c3)c2)nc2ncccn12 -2.18%, Cc1nn(C)c2c1c(C(F)(F)F)cc(=O)n2C(C)C(=O)NCCc1ccc(Cl)cc1 (configuration not stated) 0%, Cc1ccc(Oc2coc3cc(OCC(=O)NC4CCCCC4)ccc3c2=O)cc1 -16.4%, N#Cc1ccc(C(=O)Nc2ccccc2-c2nc3ccccc3s2)c(F)c1 10.4%, COc1ccc(OCc2ccc(-c3nc(C#N)c(NCc4ccccc4)o3)o2)cc1 24.3%, CNS(=O)(=O)c1ccc(NC(=O)c2cnn3c(C(F)F)cc(-c4ccccc4)nc23)cc1 -2.53%, CCOC(=O)c1cnc2c(Cl)c(Cl)ccc2c1NCCN1CCOCC1 -15.6%, O=c1c(-c2ccc(O)cc2)coc2cc(O[C@@H]3O[C@H](CO)[C@H](O)[C@H](O)[C@H]3O)ccc12 28.3%, CCOc1ccc(C2C(C(=O)OC)=C(C)NC3=C2C(=O)c2ccccc23)cc1OC (configuration not stated) -16.2%, O=C(Nc1ccc(F)cc1Cl)C1CCN(c2ncnc3c2nc2n3CCCCC2)CC1 -12%, CN(C1CCCCC1)S(=O)(=O)c1ccc2c(c1)c(=O)c(C(=O)NCc1ccccc1Cl)cn2C -7.18% [at 11.5 µM], c1ccc(C(O[C@H]2CCCN(CCc3ccc4c(c3)OCO4)C2)c2ccccc2)cc1 0.752%, Cc1ccc2onc(CNC(=O)Nc3ccccc3C#N)c2c1 -10.3%, COc1cccc(CNC(=O)CCc2c(C)nc3c(c2C)c(=O)n(C)c(=O)n3C)c1 -3.29%, CCc1ccccc1NC(=O)CSc1ncccc1C(=O)O -5.72%, COc1ccc(Nc2ncnc3c2c(-c2ccccc2)cn3-c2ccc(C)c(Cl)c2)cc1OC 0.741%, Cc1cccc(NC(=O)CSC2=Nc3ccccc3C3=NC(CCC(=O)NCc4ccc(F)cc4)C(=O)N23)c1 (configuration not stated) -10.6%, CC(=O)c1ccc(NS(=O)(=O)c2cnc(N)nc2)cc1 3.49%, CC(=O)c1cccc(Nc2ncnc3c2cnn3C)c1 -8.13%, CCOc1ccccc1NC(=O)Cc1csc(COc2cccc(C)c2)n1 -24.7%, Cc1ccc(-n2c3c(c(=O)[nH]c2=O)C(NS(=O)(=O)c2ccc(C)cc2)(C(F)(F)F)C(=O)N3)cc1 (configuration not stated) -12.3%, CCOc1ccc(CN2C(=O)c3ccccc3Sc3ccc(C(=O)NCCc4ccccc4)cc32)cc1 -10.8%, COc1ccc2[nH]cc(CCNC(=O)Nc3cccc(F)c3)c2c1 -3.54%, CCOc1ccccc1NC(=O)c1cc2cc(C)ccc2n1C -13.9%, COc1cccc(CNC(=O)c2ccc3c(c2)N(C)C(=O)C2CCCCN32)c1 (configuration not stated) -13.8%, CCc1ccc(NC(=O)C2CCC(CNS(=O)(=O)c3cccs3)CC2)cc1 (configuration not stated) 11.4%, COc1ccccc1NC(=O)C1=C(C)Nc2nc(-c3ccco3)nn2C1c1ccccc1 (configuration not stated) -17.8%, Cc1ccccc1NC(=O)c1c(NC(=O)c2ccncc2)sc2c1CCC(C(C)(C)C)C2 (configuration not stated) -21.2%, COc1ccc(Nc2nc3c(S(=O)(=O)c4ccc(Br)cc4)nnn3c3ccsc23)c(OC)c1 -0.569%, CC1CCN(c2cc3c(cc2F)c(=O)c(S(=O)(=O)c2ccc(Cl)cc2)cn3C)CC1 -4.83%, CNS(=O)(=O)c1cc(-c2nn3c(C)nnc3c3ccccc23)ccc1C 49.5%
